# Test results published in paper PMC6664820, “Novel natural and synthetic inhibitors of solute carriers SGLT1 and SGLT2” (Pharmacology Research & Perspectives, 2019).
# Hit rate of the full screen: of about 1,900 compounds, about 40 (2%) showed an effect of 50% or more. The list shows a part of the results. Positions of bridges follow the written chain, without caps; N, C: chain ends. Non-standard residues stand in square brackets, D forms with d. Residues, ends and D or L forms follow the SMILES beside them. *: point of attachment. Octanoyl(6-Me) = CCC(C)CCCCC(=O)*; Dab = NCC[CH](N)C(=O)O
# Target: human SGLT1 (hSGLT1) (human, UniProt P13866)
# Sequence (P13866 whole entry, looked up): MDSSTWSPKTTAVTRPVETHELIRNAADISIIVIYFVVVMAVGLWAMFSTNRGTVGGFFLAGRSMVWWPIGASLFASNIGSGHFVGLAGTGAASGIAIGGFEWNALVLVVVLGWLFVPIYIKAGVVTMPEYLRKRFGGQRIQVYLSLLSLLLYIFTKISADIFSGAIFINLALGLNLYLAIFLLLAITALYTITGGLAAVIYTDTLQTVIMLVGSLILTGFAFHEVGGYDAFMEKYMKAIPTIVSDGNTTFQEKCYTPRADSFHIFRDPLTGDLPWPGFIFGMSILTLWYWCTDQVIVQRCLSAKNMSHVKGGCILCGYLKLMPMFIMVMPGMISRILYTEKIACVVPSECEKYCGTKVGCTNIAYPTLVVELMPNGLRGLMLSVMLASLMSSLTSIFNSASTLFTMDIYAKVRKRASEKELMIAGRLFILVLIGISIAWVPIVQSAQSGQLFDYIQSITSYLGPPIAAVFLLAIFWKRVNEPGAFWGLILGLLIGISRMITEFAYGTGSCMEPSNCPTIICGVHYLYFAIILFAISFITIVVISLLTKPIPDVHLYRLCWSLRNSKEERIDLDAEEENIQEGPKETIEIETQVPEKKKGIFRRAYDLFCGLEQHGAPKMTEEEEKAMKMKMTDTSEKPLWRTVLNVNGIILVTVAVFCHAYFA
# Experiment: primary screen, percent of control activity; higher = less effect of the substance
# Parameters: single well
# Conditions: 50 µM
# Summary of the method: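 Single-point screen at 50 µmol/L in CHO-hSGLT1 cells, with 160 µmol/L 1-NBD-glucose in glucose-free DMEM for 90 min at 37°C. Fluorescence from isopropanol extracts was calibrated, and CHO wild-type uptake was subtracted. Data are percent of uptake without compound.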
row,Structure (SMILES),NORMALIZED SGLT1 ACTIVITY (%)
1,Cc1ccc(-c2cc(C(F)(F)F)nn2-c2ccc(S(N)(=O)=O)cc2)cc1,142
2,COc1ccc(-c2cc(=O)c3c(O)c(OC)c(O[C@@H]4O[C@H](CO[C@@H]5O[C@@H](C)[C@H](O)[C@@H](O)[C@H]5O)[C@@H](O)[C@H](O)[C@H]4O)cc3o2)cc1,111
3,Cl.N=C(N)NC(=N)Nc1ccccc1,136
4,C[C@H]1OC(n2cc(F)c(=O)[nH]c2=O)C(O)[C@@H]1O (stereo partly drawn),112
5,CN1CCCCC1c1ccc(-c2cccnc2)nc1.Cl (stereo not drawn),71
6,O=C(O)[C@@H](O)[C@H](O)[C@H](O)[C@@H](O)C(=O)O,93
7,COc1nc(NC(C)C)nc(NC(C)C)n1,96
8,Nc1nc2ccc(OC(F)(F)F)cc2s1,446
9,O=C(O)c1ccccc1Nc1cccc(C(F)(F)F)c1,520
10,CC(C)=CCC[C@@H](C)[C@H]1CC[C@@]2(C)C3=C(CC[C@]12C)[C@@]1(C)CC[C@H](O)C(C)(C)[C@@H]1CC3,148
11,C=C1C2CC[C@@]3(C)[C@H](c4ccoc4)OC(=O)C[C@]13O[C@H]1C[C@H](OC(C)=O)C(C)(C)[C@H](CC(=O)OC)[C@@]21C,81
12,O=C([O-])CF.[Na+],96
13,O=c1[nH]cc(F)c(=O)[nH]1,89
14,NCCCC[C@H](N[C@@H](CCc1ccccc1)C(=O)O)C(=O)N1CCC[C@H]1C(=O)O,99
15,C[C@H]1O[C@@H](O[C@H]2[C@@H](O)C[C@H](O[C@H]3[C@@H](O)C[C@H](O[C@H]4CC[C@@]5(C)[C@H](CC[C@@H]6[C@@H]5C[C@@H](O)[C@]5(C)[C@@H](C7=CC(=O)OC7)CC[C@]65O)C4)O[C@@H]3C)O[C@@H]2C)C[C@H](O)[C@@H]1O,135
16,CC1=C(C(=O)O)N2C(=O)[C@@H](NC(=O)[C@H](N)C3=CCC=CC3)C2SC1 (stereo partly drawn),110
17,Nc1nc(=O)c2c([nH]1)NCC(CNc1ccc(C(=O)N[C@@H](CCC(=O)[O-])C(=O)[O-])cc1)N2C=O.[Ca+2] (stereo partly drawn),135
18,COc1cc([C@@H]2c3cc4c(cc3[C@H](OC(C)=O)[C@H]3COC(=O)[C@H]23)OCO4)cc(OC)c1OC,73
19,C=C(C)[C@H]1Cc2c(ccc3c2O[C@@H]2COc4cc(OC)c(OC)cc4[C@@H]2C3=O)O1,251
20,Cl.O=C(O)C1=CCNCC1,111
21,CC(=O)N1CCCC1C(=O)O (stereo not drawn),122
22,CCC[C@@H]1CCCCN1,85
23,COc1ccc(C2COc3cc(O)ccc3C2)c(OC)c1O (racemic),128
24,C[N+](C)(C)CCO.[Cl-],97
25,O=[N+]([O-])O[C@H]1CO[C@H]2[C@@H]1OC[C@H]2O[N+](=O)[O-],100
26,CC/C(=C(/CC)c1ccc(O)cc1)c1ccc(O)cc1,82
27,CN(N=O)C(=O)N[C@@H]1[C@@H](O)[C@H](O)[C@@H](CO)O[C@@H]1O,94

row,Structure (SMILES),NORMALIZED SGLT1 ACTIVITY (%)
1,C#CCCCCCCCCCCCC(=O)CC(O)COC(C)=O (stereo not drawn),120
2,Br.CN1C2C[C@H](OC(=O)[C@H](CO)c3ccccc3)C[C@H]1[C@H]1OC21 (stereo partly drawn),109
3,CC(C)N(CCC(C(N)=O)(c1ccccc1)c1ccccn1)C(C)C.O=P(O)(O)O (stereo not drawn),86
4,CCN(CC)CCNC(=O)c1cc(Cl)c(N)cc1OC.Cl,107
5,COc1ccccc1OCC(O)CO (stereo not drawn),100
6,CNc1ccccc1C(=O)N1CCc2c([nH]c3ccccc23)C1=O,73
7,Cc1c(N(C)CS(=O)(=O)[O-])c(=O)n(-c2ccccc2)n1C.[Na+],96
8,O=c1ccc2cc(O)c(O)cc2o1,134
9,Cc1cc(O)c(C)c(O)c1C(=O)O,102
10,Cl.Cl.NCCCCN,106
11,COc1ccc2c(c1)OC[C@@H](Cc1ccc(OC)c(OC)c1)[C@@H]2O,155
12,CC1(C)CC2C1CC[C@]1(CBr)CCC3C(CC(=O)O)C(=O)O[C@@]32C1 (stereo partly drawn),132
13,COP(N)(=O)SC (stereo not drawn),91
14,CC1(C)S[C@@H]2[C@H](NC(=O)[C@H](N)c3ccc(O)cc3)C(=O)N2[C@H]1C(=O)O,116
15,CCC(C)CCCCC(=O)NC(CCN)C(=O)NC(C(=O)NC(CCN)C(=O)NC1CCNC(=O)C(C(C)O)NC(=O)C(CCN)NC(=O)C(CCN)NC(=O)C(CC(C)C)NC(=O)C(Cc2ccccc2)NC(=O)C(CCN)NC1=O)C(C)O.O=S(=O)(O)O (stereo not drawn) ({Octanoyl(6-Me)}-[Dab]T[Dab][Dab][Dab]FL[Dab][Dab]T; lactam 4-C; configuration not given here),96
16,O=C(O)Cc1cc(I)c(Oc2cc(I)c(O)c(I)c2)c(I)c1,218
17,CC(=O)O.N=C(N)N/N=C/c1c(Cl)cccc1Cl,198
18,Cc1cccc(C(=O)O)c1O,117
19,C=CC1=C(C)/C(=C/c2[nH]c(Cc3[nH]c(/C=C4\NC(=O)C(C)=C4C=C)c(C)c3CCC(=O)O)c(CCC(=O)O)c2C)NC1=O,105
20,O=C(O)/C=C/C=C/c1ccccc1,216
21,Cc1ncc(CNC(=O)N(CCCl)N=O)c(N)n1,108
22,CCOc1ccc(C(=O)c2cc(O)c(OC)c(OC)c2O)cc1,203
23,COc1cccc(/C=C/C(=O)O)c1C(C)C,128
24,CC(=O)Oc1ccc2c(c1OC(C)=O)OCC1(O)Cc3c(cc(OC(C)=O)c(OC(C)=O)c3OC(C)=O)C21 (stereo not drawn),100
25,CCCCC(=O)O[C@H]1CC[C@H]2[C@@H]3CCc4cc(O)ccc4[C@H]3CC[C@]12C,139
26,O=C(O)c1cc(O)c2ccc(Cl)cc2n1,94
27,O=C(OC[C@H]1O[C@@H](OC(=O)c2cc(O)c(O)c(OC(=O)c3cc(O)c(O)c(O)c3)c2)[C@H](OC(=O)c2cc(O)c(O)c(OC(=O)c3cc(O)c(O)c(O)c3)c2)[C@@H](OC(=O)c2cc(O)c(O)c(OC(=O)c3cc(O)c(O)c(O)c3)c2)[C@@H]1OC(=O)c1cc(O)c(O)c(OC(=O)c2cc(O)c(O)c(O)c2)c1)c1cc(O)c(O)c(OC(=O)c2cc(O)c(O)c(O)c2)c1,120
